# From PubChem BioAssay (NCATS)
# “And” between values parts separate entries of the source, which are not always exact repeats. Equal entries are not always repeated. The list shows a part of the results. These are further read-outs of the screen, such as a control signal, another cell line or another target. No call is given for them. Compounds called inactive in the main read-out are mostly missing here. For some assays here: Potencies come from curve fits of mixed quality, noted in brackets.
# Key:
# [1] = qHTS Assay for Lipid Storage Modulators (AID 1519); settings: Drosophila S3 cells, BODIPY lipid droplet/cell ratio, laser cytometry, cells loaded with oleic acid
# In short: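 Cells seeded at 5,000 per well were treated with compounds over a concentration series and loaded with oleic acid (400 uM, as added). Lipid droplet fluorescence (488 nm excitation, 500-530 nm channel) was read by laser-scanning cytometry and normalized to 20 uM Triacsin C.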
# [2] = qHTS assay for small molecule antagonists of peroxisome proliferator-activated receptor delta signaling (AID 588535); settings: HEK293T PPARd-UAS-bla, beta-lactamase FRET ratio, 18 h; 460 nm channel;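 note: cells co-treated with a PPAR-delta agonist as stimulator during compound exposure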
# In short: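 GeneBLAzer PPAR-delta-UAS-bla HEK293T cells in medium with 2% charcoal/dextran FBS were preincubated 5 hrs at 37 C, then given compounds, incubated 18 hrs at 37 C, and read by CCF4 beta-lactamase fluorescence; IC50 from Hill fits.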
# [3] = qHTS assay for small molecule antagonists of peroxisome proliferator-activated receptor gamma signaling (AID 588537); settings: HEK293 PPARg-UAS-bla, beta-lactamase ratio, antagonist mode; measured here: W460 blue channel
# In short: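 PPAR-gamma-UAS-bla HEK293 cells (3000/well, 1% charcoal/dextran-stripped FBS) were preincubated 6-6.5 h at 37 C, given titrated compounds, then stimulated with 50 nM rosiglitazone for 16 h. Beta-lactamase activity was read with CCF4 dye; IC50 came from Hill fits.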
# [4] = qHTS assay for small molecule antagonists of vitamin D receptor signaling (AID 588541); settings: HEK293T VDR-UAS-bla, beta-lactamase ratio, antagonist mode; measured here: W460 blue channel (cell viability)
# [5] = qHTS assay for small molecule agonists of retinoid X receptor alpha signaling (AID 588544); settings: HEK293T RXRa-UAS-bla, beta-lactamase reporter, 18 h; 530 nm emission
# [6] = qHTS Assay for Modulators of Human Peripheral Myelin Protein 22 (PMP22) Expression/Activity (AID 1967); settings: Cell-based PMP22 reporter, dual-color luciferase ratio; measured here: red reporter channel AC50; EF-alpha promoter control reporter in MSC80 mouse Schwann cells
# In short: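 Quantitative HTS in a mouse Schwann cell line expressing dual click beetle luciferases: Pmp22 promoter (green) and control EF-alpha promoter (red). After 24h treatment, corrected green/red signal ratio gave %Activity relative to untreated cells.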
# [7] = qHTS Validation Assay to Find Inhibitors of Chronic Active B-Cell Receptor Signaling (AID 485345); settings: ABC-DLBCL cells, chronic BCR signaling reporter
# In short: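 TMD8 ABC-DLBCL cells with dox-inducible green luciferase–IκBα fusion and red native luciferase; compounds 46 uM–3 nM, 4 h at 37C with doxycycline in 0.5% FBS IMDM. Green/red ratio normalized to basal and 10 uM MG-132.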
# [8] = measured here: cell count channel max response
# [9] = measured here: lipid (BODIPY) channel AC50
# [10] = measured here: lipid channel max response
# Tags give direction and shape of the fitted curve.
smiles,measurement,setting,value
CCCCCCCCCCCCCCSCC(=O)O,max response,[1]; [8],-9.79%
same,AC50,[1]; [9],"7.94 µM [falling, single point]"
same,max response,[1]; [10],-12%
same,max response,[2],140%
same,AC50,[3],"7.94 µM [rising, full curve, poor fit]"
same,AC50,[4],"17.8 µM [rising, full curve, poor fit]"
same,max response,[5],12.4%
COCCc1ccc(OCC(O)CNC(C)C)cc1 (centres undefined),max response,[1]; [8],25%
same,AC50,[1]; [9],"0.112 µM [rising, full curve, poor fit]"
same,max response,[1]; [10],35.9%
same,AC50,[6],"12 µM [rising, partial curve, poor fit]"
Nc1ccc(CCNc2ncnc3c2ncn3C2OC(CO)C(O)C2O)cc1 (centres undefined),max response,[1]; [8],44.9%
same,AC50,[1]; measured here: cell number channel AC50,"0.0251 µM [falling, full curve, poor fit]"
same,max response,[1]; [10],44%
same,AC50,[7]; measured here: CBG/CBR ratio read-out,"2.31 µM [falling, full curve]"
same,AC50,[7]; measured here: CBR control luciferase (viability counter),"1.46 µM [rising, full curve]"
CCCn1c(=O)c2[nH]c(-c3ccc(OCC(=O)NCCN)cc3)nc2n(CCC)c1=O,max response,[1]; [8],-19.7%
same,AC50,[1]; [9],"0.0355 µM [falling, full curve, poor fit]"
same,max response,[1]; [10],-19.3%
same,AC50,[6],"16.9 µM [rising, partial curve, poor fit]"
O=c1[nH]c2cc(Cl)c(Cl)cc2[nH]c1=O,max response,[1]; [8],20.1%
same,AC50,[1]; [9],"28.2 µM [rising, single point]"
same,max response,[1]; [10],39.1%
same,AC50,[6],"12 µM [rising, partial curve, poor fit]"
CCCNC(=O)NS(=O)(=O)c1ccc(Cl)cc1,max response,[1]; [8],18.2% and 26%
same,AC50,[1]; [9],"39.8 µM [rising, single point]"
same,max response,[1]; [10],32% and 25.5%
same,max response,[2],14.1%
same,AC50,[3],"50.1 µM [rising, single point]"
